Measurements taken from PubChem BioAssay AID1346428 (National Center for Advancing Translational Sciences (NCATS), 2018).
The campaign covered roughly 48,000 compounds. About 1,200 (2.5%) were called active. Roughly 2% stayed inconclusive and do not appear here.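 The calls were made as follows: active = activation of at least 60% and not above a set upper limit (about 1 call in 100 departs from these limits); inconclusive = activation of 40% to 60%, or above that upper limit; inactive = activation under 40%.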 Some of the results follow.

These molecules were tested against Probable G-protein coupled receptor 32 (Homo sapiens) (UniProt O75388) (assay: qHTS for Agonists of Human Resolvin D1 Receptor DRV1). Settings: CHO-K1 GPR32 beta-arrestin PathHunter luminescence, 90 min; at 76.9 µM; active compounds read high; zero percent set by DMSO-only wells.
Chain of UniProt O75388 (O75388 whole entry, looked up): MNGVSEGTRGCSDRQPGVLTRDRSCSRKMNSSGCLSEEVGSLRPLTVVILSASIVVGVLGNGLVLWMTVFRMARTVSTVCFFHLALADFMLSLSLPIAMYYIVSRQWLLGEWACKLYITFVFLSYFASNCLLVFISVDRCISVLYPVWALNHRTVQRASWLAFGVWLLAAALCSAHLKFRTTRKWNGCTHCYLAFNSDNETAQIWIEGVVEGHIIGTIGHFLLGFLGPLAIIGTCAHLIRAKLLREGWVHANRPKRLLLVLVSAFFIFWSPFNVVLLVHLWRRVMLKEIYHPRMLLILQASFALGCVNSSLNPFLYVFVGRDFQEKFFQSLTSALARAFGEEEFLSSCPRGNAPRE
Outline: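 Luminescent readout of beta-Gal complementation quantifies ligand-induced beta-arrestin association with GPR32 in CHO-K1 cells; 90 min compound incubation at 37 °C, detection 1 h at room temperature.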
Also: 0% is about no effect.

activation, inactive:
CCOc1ccc(CCNC(=O)Cn2c(C)c3cnn(-c4ccccc4)c(=O)c3c2C)cc1 9.46%
O=C(Cn1ncc2c3ccccc3n(Cc3cccc(Cl)c3)c2c1=O)N1CCCCCC1 -16.5%
CCc1c(CN2CCN(c3cccc(C)c3)C(C)C2)csc1C (stereo unspecified) 10.6%
COc1cc(OC)c(NC(=O)CSc2cc(=O)n(C)c3ccc(Cl)cc23)cc1Cl 12%
CCc1ccc(NC(=O)CC2C(=O)N(c3ccc(Cl)cc3)C(=O)N2C2CCCC2)cc1 (stereo unspecified) -29.6%
Cc1ccccc1Cn1c2ccccc2c2cnn(CC(=O)NCCc3ccc(Cl)cc3)c(=O)c21 -12%
Cc1cccc(OCCn2c(-c3ccc(Cl)cc3)nc3ccccc3c2=O)c1C -4.72%
CC(=O)c1cccc(Nc2nc(-c3ccccc3Cl)nc3ccccc23)c1 14.9%
CC(C)c1cccc(C(C)C)c1NS(=O)(=O)c1cccs1 16.7%
CC(CCCc1ccccc1)NC(=O)c1nn(-c2ccc(Cl)cc2)nc1CO (stereo unspecified) -14.4%
Cc1ccc2[nH]c3c(=O)n(CC(=O)N4CCCC(C)C4)ncc3c2c1 (stereo unspecified) 32.3%
O=C(NC1CC(=O)N(c2ccccc2)C1)c1ccc(S(=O)(=O)N2CCCC2)cc1 (stereo unspecified) -7.54%
Nc1ncc(S(=O)(=O)NCc2ccc(F)cc2)cn1 -13.6%
COc1ccc(C(=O)CCC(=O)Nc2cc(C)ccc2C)cc1 -7.24%
COc1ccc(CNC(=O)C2CCN(S(=O)(=O)c3ccc4c(ccn4C)c3)CC2)cc1 1.01%
Cc1cc(C)c2c(-n3cccc3)c(C(=O)NCC(C)c3ccccc3)sc2n1 (stereo unspecified) -1.55%
COc1ccc(-c2nc3ccccc3s2)cc1NC(C)=O -2.72%
CCOC(=O)c1c(C)[nH]c(C)c1S(=O)(=O)NCC(=O)N1CCN(c2ccccc2F)CC1 9.21%
Cc1cccc2sc(N(Cc3cccnc3)C(=O)COc3ccccc3)nc12 -30.2%
CCOc1ccccc1NC(=O)c1cc2c(=O)[nH]c3ccccc3c2s1 -10%
COc1ccc(C(=O)Nc2ccccc2C(=O)OCc2cc(=O)n3nc(C4CC4)sc3n2)cc1 4.13%
CCOc1ccc(NC(=O)Cn2c(=O)cc(C)c3c(C)nn(-c4ccc(CC)cc4)c32)cc1 -2.63%
CCOc1ccccc1NC(=O)C1CCCN(S(=O)(=O)c2cn(C)cn2)C1 (stereo unspecified) -13.7%
CCOC(=O)c1c(C)oc2nc(C)nc(Nc3cc(C)ccc3OC)c12 3.87%
CCOC(=O)N1CCc2c(sc3c2c(=O)n(-c2ccc(CC)cc2)c(=O)n3Cc2cc(C)ccc2C)C1 -0.181%
CCc1nnc(NC(=O)CSc2nc3c([nH]c4ccccc43)c(=O)n2-c2ccc(OC)cc2)s1 -14.1%
CC(C)c1ccc(/C=C(\C#N)c2nc(-c3ccc(O)cc3)cs2)cc1 -35.1%
O=C(C1CCCCC1)N(Cc1cccnc1)c1nc2ccc(F)cc2s1 -23.6%
CCc1cccc(NC(=O)COc2cc(=O)n(CC)c3ccccc23)c1 11.2%
Cn1ccc2cc(S(=O)(=O)N3CCN(C(=O)Nc4ccccc4F)CC3)ccc21 -4.12%
CCOC(=O)c1c(Nc2cccc(C)c2)nnc(-c2ccccc2)c1-c1ccccc1 2.72%
Nc1nc(N)c(S(=O)(=O)c2ccccc2)c(Nc2ccc(F)cc2)n1 32.2%
CCOC(=O)c1cccc(NC(=O)c2sc3nc[nH]c(=O)c3c2C)c1 -10.4%
CCc1ccc2occ(CC(=O)N(Cc3ccc(N(C)C)cc3)C3CCS(=O)(=O)C3)c2c1 (stereo unspecified) -22.1%
COc1cc(-c2ccno2)ccc1S(=O)(=O)N1CCN(c2ccc(F)cc2)CC1 -0.491%
CCCc1cc(=O)[nH]c(Nc2ccc(O)cc2C)n1 0.479%
O=C(CSc1nc2ccccc2nc1Cc1ccccc1)N1CCCc2ccccc21 -9.03%
CCOC(N)=O -8.56%
Cc1cccc(N(C)S(=O)(=O)c2nnc(NC(=O)C3CCCCC3)s2)c1 1.18%
O=C(O)C1CN(CCCP(=O)(O)O)CCN1 (stereo unspecified) 2.7%
CCOC(=O)N1CCC(NC(=O)c2ccc3c(c2)N(Cc2ccc(Cl)cc2)C(=O)c2ccccc2S3=O)CC1 (stereo unspecified) 5.49%
COC(=O)c1cc(OC)c(OC)cc1NC(=O)c1ccc2c(c1)CCN2S(=O)(=O)c1ccccc1 -4.05%
Fc1ccc(-n2ncc3c(N4CCN(Cc5ccccc5)CC4)ncnc32)cc1 -3.85%
CCOc1ccccc1CN1CCc2nc(Nc3ccccc3)ncc2C1 -25%
Fc1ccccc1C1=NC(c2ccc(C(F)(F)F)cc2)=Nc2ccccc2N1 4.64%
COc1cc(CN2CCN(S(=O)(=O)c3ccc(F)cc3)CC2)cc(OC)c1OC -9.64%
O=C(NCc1ccccn1)c1nn(-c2ccccc2F)nc1CO -11.2%
COc1ccc(CCN2C(=O)CN(C3CCCCCC3)C(=O)C2c2ccc(C)cc2)cc1OC (stereo unspecified) -16.1%
COc1cccc(CNC(=O)CCNS(=O)(=O)c2ccc3c(c2)CCCC(=O)N3)c1 10.5%
CCc1ccc(CNC(=O)c2ccc3c(c2)nc2n3CCCCC2)cc1 -10.1%
COc1ccc(OC)c(CCNC(=O)CN2C(=O)COc3ccc(S(=O)(=O)N4CCCCCC4)cc32)c1 -0.0266%
COc1cccc(CNC(=O)CSc2n[nH]c(-c3ccccc3Cl)n2)c1 -9.14%
Cc1ccc(C)c(Cn2cnc3ccccc3c2=O)c1 15.2%
CCc1cccc(NC(=O)CN2c3ccccc3S(=O)(=O)c3ccccc32)c1 -4.69%
CC(=O)N1c2ccc(S(=O)(=O)NCCC(=O)Nc3ccc(C)cc3Br)cc2CC1C (stereo unspecified) 39.4%
O=C(CSc1ccc2nnc(CCNS(=O)(=O)c3ccccc3)n2n1)Nc1ccccc1C(F)(F)F -8.03%
